According to patent US20190083615A1:

B1: Ab5: humanized light chain 45AGX Humanized x[LAG3_H] mAb (LB145.22D2.E1.D1 (VL3)) Kappa (PX) and humanized heavy chain 57AHH Humanized x[LAG3_H] mAb … (antibody)
heavy: QMQLVQSGPEVKKPGTSVKVSCKASGYTFTDYNVDWVRQARGQRLEWIGDINPNNGGTIYAQKFQERVTITVDKSTSTAYMELSSLRSEDTAVYYCARNYRWFGAMDHWGQGTTVTVSSASTKGPSVFPLAPCSRSTSESTAALGCLVKDYFPEPVTVSWNSGALTSGVHTFPAVLQSSGLYSLSSVVTVPSSSLGTKTYTCNVDHKPSNTKVDKRV[human IgG4 Fc with S228P (EU numbers) not spelt out]
light: DIVMTQTPLSLSVTPGQPASISCKASQSLDYEGDSDMNWYLQKPGQPPQLLIYGASNLESGVPDRFSGSGSGTDFTLKISRVEAEDVGVYYCQQSTEDPRTFGGGTKVEIKRTVAAPSVFIFPPSDEQLKSGTASVVCLLNNFYPREAKVQWKVDNALQSGNSQESVTEQDSKDSTYSLSSTLTLSKADYEKHKVYACEVTHQGLSSPVTKSFNRGEC
B2: Ab7: humanized light chain 45AGX Humanized x[LAG3_H] mAb (LB145.22D2.E1.D1 (VL3)) Kappa (PX) and humanized heavy chain 21AHG Humanized x[LAG3_H] mAb … (antibody)
heavy: QMQLVQSGPEVKKPGTSVKVSCKASGYTFTDYNVDWVRQARGQRLEWIGDINPNSGGTIYAQKFQERVTITVDKSTSTAYMELSSLRSEDTAVYYCARNYRWFGAMDHWGQGTTVTVSSASTKGPSVFPLAPCSRSTSESTAALGCLVKDYFPEPVTVSWNSGALTSGVHTFPAVLQSSGLYSLSSVVTVPSSSLGTKTYTCNVDHKPSNTKVDKRV[human IgG4 Fc with S228P (EU numbers) not spelt out]
light: DIVMTQTPLSLSVTPGQPASISCKASQSLDYEGDSDMNWYLQKPGQPPQLLIYGASNLESGVPDRFSGSGSGTDFTLKISRVEAEDVGVYYCQQSTEDPRTFGGGTKVEIKRTVAAPSVFIFPPSDEQLKSGTASVVCLLNNFYPREAKVQWKVDNALQSGNSQESVTEQDSKDSTYSLSSTLTLSKADYEKHKVYACEVTHQGLSSPVTKSFNRGEC
B3: Ab8: humanized light chain 45AGX Humanized x[LAG3_H] mAb (LB145.22D2.E1.D1 (VL3)) Kappa (PX) and humanized heavy chain 80AHG Humanized x[LAG3_H] mAb … (antibody)
heavy: QMQLVQSGPEVKKPGTSVKVSCKASGYTFTDYNVDWVRQARGQRLEWIGDINPNQGGTIYAQKFQERVTITVDKSTSTAYMELSSLRSEDTAVYYCARNYRWFGAMDHWGQGTTVTVSSASTKGPSVFPLAPCSRSTSESTAALGCLVKDYFPEPVTVSWNSGALTSGVHTFPAVLQSSGLYSLSSVVTVPSSSLGTKTYTCNVDHKPSNTKVDKRV[human IgG4 Fc with S228P (EU numbers) not spelt out]
light: DIVMTQTPLSLSVTPGQPASISCKASQSLDYEGDSDMNWYLQKPGQPPQLLIYGASNLESGVPDRFSGSGSGTDFTLKISRVEAEDVGVYYCQQSTEDPRTFGGGTKVEIKRTVAAPSVFIFPPSDEQLKSGTASVVCLLNNFYPREAKVQWKVDNALQSGNSQESVTEQDSKDSTYSLSSTLTLSKADYEKHKVYACEVTHQGLSSPVTKSFNRGEC
B4: Ab6: humanized light chain 45AGX Humanized x[LAG3_H] mAb (LB145.22D2.E1.D1 (VL3)) Kappa (PX) and humanized heavy chain 73AHD Humanized x[LAG3_H] mAb … (antibody)
heavy: QMQLVQSGPEVKKPGTSVKVSCKASGYTFTDYNVDWVRQARGQRLEWIGDINPNDGGTIYAQKFQERVTITVDKSTSTAYMELSSLRSEDTAVYYCARNYRWFGAMDHWGQGTTVTVSSASTKGPSVFPLAPCSRSTSESTAALGCLVKDYFPEPVTVSWNSGALTSGVHTFPAVLQSSGLYSLSSVVTVPSSSLGTKTYTCNVDHKPSNTKVDKRV[human IgG4 Fc with S228P (EU numbers) not spelt out]
light: DIVMTQTPLSLSVTPGQPASISCKASQSLDYEGDSDMNWYLQKPGQPPQLLIYGASNLESGVPDRFSGSGSGTDFTLKISRVEAEDVGVYYCQQSTEDPRTFGGGTKVEIKRTVAAPSVFIFPPSDEQLKSGTASVVCLLNNFYPREAKVQWKVDNALQSGNSQESVTEQDSKDSTYSLSSTLTLSKADYEKHKVYACEVTHQGLSSPVTKSFNRGEC

How the values were obtained:
[1] = molecular target: T1, cynomolgous monkey LAG3 expressed on cells (cynomolgous monkey); test: cell based KinExA, BaF/3 cells transfected with cynomolgus LAG3 (n=2)
[2] = molecular target: T1, cynomolgous monkey LAG3 expressed on …; test: flow cytometry, PHA-activated cynomolgus CD4+ T cells (3 donors)
[3] = molecular target: T1, cynomolgous monkey LAG3 expressed on …; test: flow cytometry, PHA-activated cynomolgus CD8+ T cells (3 donors)
[4] = molecular target: T1, cynomolgous monkey LAG3 expressed on …; test: cell based KinExA, BaF/3 cells transfected with cynomolgus LAG3 (n=3)

Row | Binder | Kd [1] [pM] | EC50 [2] [pM] | EC50 [3] [pM] | Kd [4] [pM]
1 | B1 | 25 |  |  | 
2 | B2 | 11 | 35 | 41 | 
3 | B3 | 16 | 27 | 31 | 
4 | B4 |  | 30 | 30 | 12
